In the supplement of paper PMC6531468:
The list shows a part of the results. These are enrichments in a pooled selection; single values are uncertain. Each score is taken over the longer molecules that contain the sequence shown.

Each sequence was assayed on IMP3 KH3-4 (assay: 6-mer SELEX enrichment z-score vs GST control; IMP3 is the RNA-binding protein IGF2BP3; higher = more enriched by binding). Details: construct: KH3-4 (377-579); SELEX round: R4.
Method: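 SELEX-seq with GST-tagged IMP3 KH3-4 (Pro377-Lys579) and an N40 RNA pool, round 4. 6-mer z-score of sequence-tag enrichment normalised to the corresponding GST SELEX round; RNA k-mers written as DNA (T for U).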

Sequence of IMP3 KH3-4 (chain, as listed by the source): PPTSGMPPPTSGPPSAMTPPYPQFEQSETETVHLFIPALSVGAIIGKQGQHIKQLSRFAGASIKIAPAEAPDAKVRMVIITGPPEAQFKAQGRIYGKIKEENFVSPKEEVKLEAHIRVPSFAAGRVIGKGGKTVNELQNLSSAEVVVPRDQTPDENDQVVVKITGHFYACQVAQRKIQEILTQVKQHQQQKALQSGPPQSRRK

Sequence	6-mer SELEX enrichment z-score
TATCAT	1.53
GTAAGG	0.469
ACCGTG	-0.929
ACTTTA	1.3
CCACCG	-1.56
AGCAGG	0.51
CGGTAG	-0.105
AACCAT	0.127
AGTGTT	-0.148
CATTAC	1.05
CACGTG	-0.313
TACTAC	0.505
TTGCCA	-0.199
CTTGCG	-0.864
CGGGCG	-1.8
AAGGAC	0.042
AACAAA	1.06
TGCCTG	-0.728
ACGGTA	-0.292
TTCACT	0.87

Sequence	6-mer SELEX enrichment z-score
GGCAAG	0.962
CTTCCG	-0.394
CAGATC	-0.05
CATGTT	0.41
GCAATC	-0.212
TGAATA	2.1
TAAAGC	-0.555
ATTAGT	0.748
GCTGGT	-0.019
CGCGTT	-0.576
GGTGGT	0.518
AACTAA	1.53
TACGTA	-0.148
TCGCGG	-0.121
ATCAGA	0.691
TTTGGC	0.142
CGGCTC	0.171
TATAGT	0.849
CTATAT	1.67
TTCGGG	-0.297
